Consider 70 compounds from PubChem BioAssay AID488969 (Vanderbilt High Throughput Screening Facility, 2010).

SMILES strings stand for the structures. Whole data set: some 110,000 compounds, median “z-score” near -0.1, cut for the highest 2% near 2. This is one part of the list. Calls of active or inactive are those of the source.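 How the source made its calls: active means z-score in the third read window above 3 or below -3; inactive means the rest.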

This test has as its target Metabotropic glutamate receptor 8 (Rattus norvegicus) (UniProt P70579). As to the kind of experiment: mGluR8 Gi/Go-coupled signaling modulation – cell-based, rat, thallium flux, HTS, primary screen (AID 488969). The following applies: HEK293 rat mGluR8, GIRK (G protein-gated inwardly rectifying potassium channel) thallium flux, FluoZin2; at 10 µM; stronger effect = higher value; submaximal glutamate (EC20) added with thallium.
UniProt P70579, sequence (P70579 whole entry, looked up): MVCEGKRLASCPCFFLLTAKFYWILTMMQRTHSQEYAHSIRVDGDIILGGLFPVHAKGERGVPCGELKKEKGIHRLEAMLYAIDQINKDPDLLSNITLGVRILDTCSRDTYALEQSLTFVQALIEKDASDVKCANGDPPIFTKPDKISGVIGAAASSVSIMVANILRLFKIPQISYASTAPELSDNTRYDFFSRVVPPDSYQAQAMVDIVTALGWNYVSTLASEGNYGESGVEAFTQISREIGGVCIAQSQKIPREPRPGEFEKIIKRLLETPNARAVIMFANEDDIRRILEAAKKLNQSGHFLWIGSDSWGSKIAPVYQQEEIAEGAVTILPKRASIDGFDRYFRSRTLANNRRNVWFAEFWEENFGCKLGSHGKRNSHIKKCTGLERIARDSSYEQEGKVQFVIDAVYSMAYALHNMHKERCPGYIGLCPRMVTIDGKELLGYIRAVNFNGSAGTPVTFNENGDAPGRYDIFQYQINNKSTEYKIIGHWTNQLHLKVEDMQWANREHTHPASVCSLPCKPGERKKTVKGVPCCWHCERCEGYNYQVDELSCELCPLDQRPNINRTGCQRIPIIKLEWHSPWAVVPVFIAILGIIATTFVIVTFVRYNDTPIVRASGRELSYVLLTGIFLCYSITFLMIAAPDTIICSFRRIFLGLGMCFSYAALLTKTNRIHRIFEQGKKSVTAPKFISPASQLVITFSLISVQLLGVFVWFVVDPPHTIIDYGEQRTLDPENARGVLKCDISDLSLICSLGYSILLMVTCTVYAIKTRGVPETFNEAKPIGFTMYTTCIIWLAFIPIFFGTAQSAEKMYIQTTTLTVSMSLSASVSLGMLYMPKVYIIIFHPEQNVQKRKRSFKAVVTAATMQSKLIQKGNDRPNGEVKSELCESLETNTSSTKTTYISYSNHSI
On to `COc1ccc(NC(=O)CCSc2ccc3ccccc3n2)cc1`, for which the z-score was -0.187.

In turn, `CCOC(=O)C(C)On1c(SC(C)C(=O)OCC)nc2ccccc2c1=O` (stereo not given) yielded a z-score of -0.305.

Compound `Cc1ccc(OCCCCN2CCC(C)CC2)c(Br)c1` gave a z-score of 0.342.

In turn, `O=[N+]([O-])/C=C/c1cn(Cc2ccc(F)cc2)c2ccccc12` yielded a z-score of 0.0891.

`CCN=C1SC(CC(=O)NCCc2ccc(OC)cc2)C(=O)N1CC` (stereo not given) displayed a z-score of -0.109.

For the compound `Cc1cccc(OCCNc2cc(N3CCN(CCO)CC3)ccc2[N+](=O)[O-])c1`, the z-score was -0.0985.

In turn, `Cc1cccc(-n2c(SCC(=O)NC3CCCC3)nnc2-c2ccoc2C)c1` yielded a z-score of -0.591.

With `Cc1ccc(C(=O)C[n+]2cccc3ccccc32)cc1`, the z-score was -0.236.

As to `COc1ccc(S(=O)(=O)Nc2ccc(S(=O)(=O)Nc3nc(C)cc(C)n3)cc2)cc1OC`, the z-score came out at 1.27.

`Cc1ccc2c3c1C(=O)C(=O)N3C(C)(C)CC2C` (stereo not given) gave a z-score of -0.697.

Take `Cn1c(CCNC(=O)C(C)(C)C)nc2ccccc21`: the z-score is -0.00183.

In the case of `COc1cnc(-c2ccccc2)nc1Oc1ccccc1C`, the z-score was -0.0402.

For `Cc1ccc(Cn2ccc(NC(=O)CCSc3nc(-c4ccco4)cc(C(F)(F)F)n3)n2)cc1`, the z-score was 0.106.

As to `CC(SCc1ccccc1)C(=O)N/N=C/c1cccs1` (stereo not given), the z-score stood at 0.713.

Compound `CCOC(=O)C(NC(=O)c1ccc(OC)cc1)(N1CCOCC1)C(F)(F)F` (stereo not given) had a z-score of 0.152.

Compound `CC(C)(C)c1ccc(/C=C2\SC(=O)N(CCNC(=O)c3cccc(S(=O)(=O)N4CCOCC4)c3)C2=O)cc1` returned a z-score of -0.215.

Consider `COc1cccc(C(=O)n2c(SC)nc3cc4c(cc32)OCCO4)c1`, for which the z-score is -0.629.

Consider `O=C1CC(N2CCC(O)(c3ccc(Br)cc3)CC2)C(=O)N1c1ccc(Cl)cc1` (stereo not given), for which the z-score was -0.333.

As to `C=CCNc1sc(C(=O)c2ccccc2)c(N)c1C#N`, the z-score is -1.32.

In turn, `O=C(O)C1CCCCC1C(=O)Nc1cccc2ccccc12` (stereo not given) gave a z-score of -0.0468.

In turn, `O=C(Nc1ccccc1C(=O)NC(Cc1ccccc1)C(=O)NC1CCCCCC1)c1ccccc1` (stereo not given) returned a z-score of -0.114.

The compound `COc1ccc(/C=N/Nc2nc(Nc3ccccc3)nc(N3CCCCC3)n2)cc1OC` gave a z-score of -0.23.

Compound `Cc1cccc(NS(=O)(=O)c2cc(C(=O)N3CCc4ccccc4C3)ccc2Cl)c1C` displayed a z-score of -0.467.

For the compound `CCOCc1nnc(NC(=O)c2ccco2)s1`, the z-score came to 0.371.

In turn, `N#Cc1cc(C#N)c(N2CCN(c3ccccn3)CC2)nc1N` yielded a z-score of -0.0444.

Compound `O=C(NCc1ccc2c(c1)OCO2)c1cc(-c2ccccc2)on1` yielded a z-score of -0.221.

For `Cc1ccc(/C=N/NC(=O)CSc2nc3nc(C)cc(C)n3n2)cc1`, the z-score is -0.108.

Compound `COc1ccc(N(CC(=O)NC2CCCCC2)C(=O)CNC(=O)c2ccco2)cc1OC` came in with a z-score of -0.012.

The compound `COCCNC(=O)CS(=O)Cc1nc(-c2ccc(Cl)cc2)oc1C` (stereo not given) showed a z-score of 0.00619.

In turn, `CCOCC(=O)Nc1nnc(Cc2ccc(OC)cc2)s1` displayed a z-score of -0.115.

In the case of `COc1ccc(C(=O)CSc2nc3nc(C)cc(C)c3c(=O)[nH]2)cc1OC`, the z-score was -0.692.

Regarding `Cc1ccc(C)c(OCc2nnc(N)s2)c1`, the z-score was 0.0977.

With `Cc1cc(C)c(C2C(C#N)=C(N)Oc3n[nH]c(C)c32)cc1CN1CCCC1` (stereo not given), the z-score turned out to be 0.255.

The compound `Cc1[nH]c2ccccc2c1C(=O)CSc1ccccc1` came in with a z-score of -0.0521.

As for `COC(=O)c1ccc(N)cc1O`, the z-score is -0.204.

The compound `CCOC(=O)CSc1nc(N)c(C(=O)Nc2ccc(N(C)C)cc2)s1` showed a z-score of -1.4.

`O=Cc1cn(CC(=O)N2CCOCC2)c2ccccc12` gave a z-score of -0.773.

With `CCC(Sc1ncnc2c1nnn2-c1ccc(F)cc1)C(=O)OC` (stereo not given), the z-score is -0.361.

`CC(C)n1nc(C(=O)Nc2ccccc2N2CCOCC2)c2ccccc2c1=O` registered a z-score of -0.035.

As for `COc1cc(/C=N/NC(=O)CCc2n[nH]c(=O)[nH]c2=O)cc(OC)c1OC`, the z-score is -0.317.

With `O=C(O)CCCN=CC1=C(O)C(C(=O)c2ccccc2)CCC1=O` (stereo not given), the z-score was -0.148.

On to `CC(C)C(=O)Nc1cccc(NC(=O)c2cc3ccccc3o2)c1`, for which the z-score is active: 7.7.

`CCN(CC)C(=O)Oc1ccc2cc(Br)ccc2c1` gave a z-score of 0.935.

In the case of `O=C(COC(=O)COc1ccc(Cl)cc1Cl)Nc1cccnc1Cl`, the z-score was -0.365.

With `CCSc1nnc(NC(=O)C2(C)Cc3ccccc3C(=O)O2)s1` (stereo not given), the z-score was -0.0977.

`CCCCCCOC(=O)/C=C/c1c(C)[nH]c(=O)[nH]c1=O` had a z-score of -0.139.

For `O=C(COC(=O)c1cnccn1)c1ccc(Br)cc1`, the z-score came to 1.37.

Take `CC(NC(=O)OCc1ccccc1)C(=O)N1CC(O)CC1C(=O)O` (stereo not given): the z-score was -0.00982.

Consider `COc1ccccc1NC(=O)Nc1cc(NC(=O)Nc2ccccc2OC)c(C)nc1C`, for which the z-score was -0.415.

Take `C[N+](C)(C)CCCN1C(=O)CCCC1=O`: the z-score was -0.194.

For `Cc1cccn2c(=O)c3cc(C#N)c(=NC(=O)c4cccnc4)n(CC4CCCO4)c3nc12` (stereo not given), the z-score was active: -4.61.

Turning to `COc1ccc(C2c3c(ccc4ccccc34)Oc3ncn4nc(CO/N=C/c5ccccc5)nc4c32)cc1` (stereo not given), the z-score was -0.12.

For the compound `Cn1c(NC(=O)c2ccccc2)c(-c2cccs2)c(=O)c2ccccc21`, the z-score amounted to 0.294.

Regarding `O=C(Nc1ccc(Oc2ccc3ccccc3c2)cc1)c1ccco1`, the z-score worked out at 0.388.

Regarding `COc1ccc(C2(NC(C)=O)CCN(C(=O)CCC(=O)O)CC2)cc1`, the z-score stood at 1.5.

`O=C(CCn1cnc2ccccc21)N/N=C/c1ccc(O)cc1`: the z-score is -0.0105.

In turn, `COc1ccc([N+](=O)[O-])cc1NC(=O)CC(c1ccccc1)c1ccccc1` returned a z-score of -0.135.

For the compound `COc1ccc(OC)c(N2C(=O)CC(Cc3cc(C)cc(C)c3)C2=O)c1` (stereo not given), the z-score was -0.399.

With `CCc1nnc(NC(=O)CSc2nnc3c(C)cc4c(C)ccc(C)c4n23)s1`, the z-score is -0.358.

Compound `Cc1cc(C(=O)N/N=C/c2ccc(O)c([N+](=O)[O-])c2)n[nH]1` registered a z-score of 0.252.

As to `COCCNC(=O)c1cc2cc(Br)cc(OC)c2oc1=O`, the z-score is -0.19.

In turn, `CCOC(=O)CSc1nnc(CNC(=O)Cc2ccccc2)n1-c1ccccc1OC` returned a z-score of 0.235.

`CS(=O)(=O)N1CCC(C(=O)Nc2ccc3c(c2)OCCO3)CC1` gave a z-score of 0.0973.

The compound `Cc1ccc(C(=O)Nc2ccon2)cc1S(=O)(=O)N1CCOCC1` had a z-score of -0.00769.

In turn, `CC(=O)Nc1ccc(NC(=O)/C(Cl)=C/c2ccccc2)cc1` had a z-score of -0.311.

`O=C(NNS(=O)(=O)c1ccc(CCCl)cc1)C(O)(c1ccccc1)c1ccccc1` came in with a z-score of 0.0615.

`COC(=O)c1sc(N2C(=O)c3oc4ccccc4c(=O)c3C2c2cccs2)nc1C` (stereo not given) showed a z-score of -0.0409.

Take `COc1ccc(S(=O)(=O)N2CCC(C(=O)NCc3ccco3)CC2)cc1`: the z-score is -0.307.

The compound `O=C(O)CC12CSc3[nH]c(=O)sc3C1c1ccccc1OC2=O` (stereo not given) returned a z-score of -0.235.

The compound `C/C(=N\N1CCN(C2c3ccccc3-c3ccccc32)CC1)c1ccncc1` returned a z-score of -0.0694.
